Hit rate of the full screen: of about 410,000 compounds, about 5,000 (1.2%) were called active. Inconclusive means that the source gave no clear call. Such entries were picked first, then a sample of the others. The call rests on the fitted dose curve; in most records, active means well fitted inhibition curve with a large enough effect; inconclusive means small, poorly fitted or top-dose-only effect; inactive means no such curve, though single readings can be large or run the other way. Potencies beside an inconclusive call are fits to weak or partial responses and may not hold up.
Assay: qHTS for Inhibitors of TGF-b; further: nearly all actives have a fitted effect of over 65% in size
Conditions: HepG2 CAGA-GFP TGF-b/SMAD3 reporter, GFP fluorescence, 18 h, TGF-beta stimulated, 500 pg/mL final; series mostly up to 46.1 µM; activity, negative = inhibition: at the top concentration
Procedure, shortened: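 Cell-based qHTS in HEPG2 carrying a CAGA-GFP Smad reporter; compounds added before 500 pg/mL final TGF-beta, 18 h incubation at 37 degrees C, GFP fluorescence quantified per cell by imaging cytometry.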
On the % scale 0 is the no-effect control and ±100 the full control effect; potency means the concentration at half of the fitted maximal effect; tags describe the fitted curve by direction and shape.

Row | Compound | activity, negative = inhibition | Potency
1 | COc1ccccc1NC(=O)c1c(NC(=O)Cc2ccccc2)sc2c1CCC(C(C)(C)C)C2 (stereo not drawn) | inactive: -11.2% | 
2 | Cn1c(CNC(=O)c2ccc(Cl)cc2)nnc1SCC(=O)NC1=NCCS1 |  | inconclusive: 35.5 µM [inhibitor, partial curve, poor fit]
3 | COc1ccc2cc(CCNS(=O)(=O)c3c(C)cc(C)cc3C)c(=O)[nH]c2c1 | inactive: 1.92% | 
4 | COc1ccc(N2CCN(C(C)C(=O)N3CCCC3)CC2)cc1 (stereo not drawn) |  | inconclusive: 35.5 µM [inhibitor, single point]
5 | CCn1nc(C)c(CCN(C)C(=O)Nc2cc(C)cc(C)c2)c1C | inactive: -1.25% | 
6 | O=S1(=O)C=C(SCc2ccc(Cl)c(Cl)c2)Nc2ccccc21 |  | inconclusive: 35.5 µM [inhibitor, partial curve, poor fit]
7 | COc1ccc2nc(NC(=O)CSC3=NCCS3)sc2c1 | inactive: 8.83% | 
8 | CCN(CC)C(=O)c1sc(NC(=O)c2cc(-c3ccc(C)s3)nc3ccccc23)c(C(=O)OC)c1C |  | inconclusive: 0.112 µM [inhibitor, full curve, poor fit]
9 | O=C(CSc1n[nH]c(-c2ccncc2)n1)Nc1ccc(F)cc1 |  | inconclusive: 10 µM [inhibitor, partial curve]
10 | CS(=O)(=O)c1ccc2nc(NC(=O)CCS(=O)(=O)c3ccccc3)sc2c1 |  | inconclusive: 2.24 µM [inhibitor, full curve, poor fit]
11 | CCOc1cc2c(cc1OCC)C(c1ccc(OC)c(OC)c1)N(c1ccc(C(=O)O)cc1)C(=O)C2 (stereo not drawn) | inactive: 1.87% | 
12 | O=C(Cn1nc(C(F)(F)F)c2c1CCC2)Nc1ccc(Cl)cc1 |  | inconclusive: 17.8 µM [inhibitor, single point]
13 | O=C(NCCN1C(=O)S/C(=C/c2cccnc2)C1=O)c1ccc(S(=O)(=O)N2CCCC2)cc1 | inactive: 8.56% | 
14 | O=C(Nc1cccc(-c2nnc(-c3ccccc3)o2)c1)c1ccc(Br)o1 |  | inconclusive: 20 µM [inhibitor, single point]
15 | O=C(Nc1ccccc1C(=O)N1CCCC1)c1ccccc1 |  | inconclusive: 31.6 µM [inhibitor, single point]
16 | COc1cc([N+](=O)[O-])ccc1NC(=O)CN1CCCC1 |  | inconclusive: 22.4 µM [inhibitor, single point]
17 | Cc1ccc(C)c(N2CCN(C(=O)CCn3c(=O)c4cccn4c4cccnc43)CC2)c1 |  | inconclusive: 0.112 µM [inhibitor, full curve, poor fit]
18 | CC(C)(C)NCc1cc2ccccc2[nH]c1=O |  | inconclusive: 7.94 µM [inhibitor, partial curve, poor fit]
19 | C[C@@H]1CN([C@H](C)CO)C(=O)CCCn2nncc2CO[C@H]1CN(C)S(=O)(=O)c1cccs1 |  | inconclusive: 3.55 µM [inhibitor, single point]
20 | Cc1ccoc1C(=O)NCCNc1ccc(Cl)cc1[N+](=O)[O-] | inactive: 2.05% | 
21 | CSC1=NCCN1C(=O)c1ccc(S(=O)(=O)N2CCCCC2)cc1 |  | inconclusive: 28.2 µM [inhibitor, single point]
22 | COc1ccccc1NC(=O)CCS(=O)(=O)c1cc2c3c(c1)CCN3C(=O)CC2 | inactive: -1.94% | 
23 | O=C(NCc1cccs1)c1cccc(Nc2nc3ccc(Br)cc3[nH]2)c1 |  | inconclusive: 35.5 µM [inhibitor, single point]

Row | Compound | activity, negative = inhibition | Potency
24 | NNC(=O)c1oc2nc(-c3ccccc3)cc(-c3ccccc3)c2c1N |  | inconclusive: 35.5 µM [inhibitor, single point]
25 | Cc1cc(=O)[nH]c2nnc(-c3ccc(Cl)cc3)n12 |  | inconclusive: 35.5 µM [inhibitor, single point]
26 | CCOc1ccc(C(=O)NCCn2cc(SCC(=O)Nc3ccccc3)c3ccccc32)cc1 |  | active: 10 µM
27 | CCn1c(SCC(=O)Nc2oc(-c3ccccc3)c(-c3ccccc3)c2C#N)nnc1-c1ccncc1 | inactive: 4.91% | 
28 | Cc1ccc(-n2c(SCC(=O)NCc3ccccc3)nc3c([nH]c4ccccc43)c2=O)cc1 | inactive: -22.4% | 
29 | CCCCc1ccc(NC(=O)N2CCNC(=O)C2CC(=O)Nc2ccsc2C(=O)OC)cc1 (stereo not drawn) |  | inconclusive: 25.1 µM [inhibitor, partial curve, poor fit]
30 | CCn1c(CCNC(=O)c2ccc(C)cc2)nnc1SCc1ccc(Cl)c(Cl)c1 |  | inconclusive: 6.31 µM [inhibitor, single point]
31 | CCc1nc2c(OCCOc3ccc(F)cc3)cccn2c1N(C=O)Cc1ccc(OC)cc1 |  | inconclusive: 12.6 µM [inhibitor, single point]
32 | COc1ccc(NS(=O)(=O)c2ccc3[nH]c4c(c3c2)CCCC4)c(OC)c1 |  | inconclusive: 11.2 µM [inhibitor, partial curve, poor fit]
33 | Cc1ccc(C(=O)OCc2nc3ccccc3s2)o1 | inactive: 21.3% | 
34 | CCOc1ccc(Nc2nc3ccccc3c3nnc(CC)n23)cc1 | inactive: 13.1% | 
35 | Oc1c(Cl)cc(Cl)cc1/C=N/NC(=S)NC1CC2C=CC1C2 (stereo not drawn) |  | inconclusive: 20 µM [inhibitor, single point]
36 | CCCc1sc(N/N=C/c2ccccn2)nc1-c1ccc(Br)cc1 |  | inconclusive: 10 µM [inhibitor, partial curve]
37 | O=C(CCc1ccccc1)NCC(c1ccco1)N1CCc2ccccc21 (stereo not drawn) |  | inconclusive: 22.4 µM [inhibitor, single point]
38 | O=C1c2ccsc2SCCN1Cc1ccc(Cl)cc1Cl |  | inconclusive: 11.2 µM [inhibitor, single point]
39 | COCc1cc(C)nc2sc(C(=O)NN)c(-n3cccc3)c12 |  | inconclusive: 0.631 µM [inhibitor, full curve]
40 | Cc1ccc(Nc2nc3c([nH]2)c(=O)[nH]c(=O)n3C)cc1 |  | inconclusive: 22.4 µM [inhibitor, single point]
41 | CN(C)c1ccc(C(CNS(=O)(=O)c2cc(F)ccc2F)N2CCOCC2)cc1 (stereo not drawn) |  | inconclusive: 17.8 µM [inhibitor, partial curve, poor fit]
42 | COc1ccc(NC(=O)C2CCN(S(=O)(=O)c3c(C)noc3/C=C/c3ccco3)CC2)cc1 |  | inconclusive: 1 µM [inhibitor, full curve]
43 | CC(=O)c1ccc(N2CCN(c3ccc(S(=O)(=O)NCCCN(C)C)cc3[N+](=O)[O-])CC2)cc1 |  | inconclusive: 35.5 µM [inhibitor, single point]
44 | CCCCCCCCCC[n+]1cccc(Br)c1 |  | inconclusive: 35.5 µM [inhibitor, single point]
45 | CC(C)(C)NC(=O)CSc1nnc(NC(=O)CCn2cnc3ccccc3c2=O)s1 |  | inconclusive: 2.51 µM [inhibitor, partial curve]
46 | Cc1ccc(F)cc1NCC(=O)Nc1ccc(Br)cc1 |  | inconclusive: 25.1 µM [inhibitor, single point]

Row | Compound | activity, negative = inhibition | Potency
47 | CC(C)CCn1c(N)c(S(=O)(=O)c2cccs2)c2nc3ccccc3nc21 |  | active: 15.8 µM
48 | COC(=O)C1=C(C)Nc2nnnn2C1c1ccc(Cl)cc1Cl (stereo not drawn) |  | inconclusive: 25.1 µM [inhibitor, single point]
49 | CC/C=C/[C@@H](c1ccccc1)[C@H](C)C(O)CC(=O)SC(C)(C)C (stereo partly drawn) |  | inconclusive: 15.8 µM [inhibitor, single point]
50 | O=C(Nc1ccc(F)cc1)c1nc(S(=O)(=O)Cc2ccccc2)ncc1Cl |  | active: 5.01 µM
51 | O=C(CCn1nc(-c2ccc(Cl)cc2)ccc1=O)N1CCN(c2ccccc2)CC1 |  | inconclusive: 35.5 µM [inhibitor, single point]
52 | Cc1ccc(S(=O)(=O)[N-]c2nc3ccccc3nc2-n2cc[n+](CCC(C)C)c2)cc1 |  | inconclusive: 15.8 µM [inhibitor, partial curve, poor fit]
53 | COc1ccccc1-c1cc(C(F)(F)F)nc(S(=O)(=O)CCCC(=O)Nc2cc(Br)ccc2O)n1 | inactive: -26.8% | 
54 | Cc1ccc(OCC(=O)Nc2cc(C(=O)O)cc(C(=O)O)c2)cc1C | inactive: 0.407% | 
55 | CC(=O)C1=C(C)OC(N)=C(C#N)C1c1cccnc1 (stereo not drawn) | inactive: -2.03% | 
56 | O=C(c1cccs1)N1CCCc2cc(NS(=O)(=O)c3ccc(Cl)cc3)ccc21 |  | inconclusive: 17.8 µM [inhibitor, partial curve, poor fit]
57 | c1ccc(C2=NNC(c3ccccn3)=NN2)nc1 | inactive: -13.3% | 
58 | CCOC(=O)C(=O)NNc1ccc(F)cc1 | inactive: 14.4% | 
59 | CC(=O)c1ccc(NC(=O)Cn2c3ncccc3c(=O)n2-c2ccc(C)cc2)cc1 |  | inconclusive: 14.1 µM [inhibitor, partial curve]
60 | Cc1ccc(-c2noc(CSc3nnc(-c4ccc(Cl)cc4)n3C)n2)cc1 |  | inconclusive: 0.126 µM [inhibitor, full curve, poor fit]
61 | COc1ccccc1Nc1nc(C)cs1 |  | inactive
62 | CCOC(=O)c1c(C)[nH]c(C(=O)N2CCc3cc(OC)c(OC)cc3C2)c1C |  | inconclusive: 35.5 µM [inhibitor, single point]
63 | O=[N+]([O-])c1nn(-c2ccc3c(c2)OCCO3)n(O)c1=NC1CCCCC1 | inactive: -16.1% | 
64 | Cc1ccc(Cl)cc1N1CCN(C(=O)CCSCc2ccccc2F)CC1 |  | inconclusive: 35.5 µM [inhibitor, single point]
65 | CCc1ccc(-c2cc(C)no2)cc1S(=O)(=O)N1CCN(c2cccc(Cl)c2)CC1 | inactive: -12% | 
66 | CCCOc1ccc(/C(O)=C2\C(=O)C(=O)N(CCCOC)C23C(=O)N(C)c2ccccc23)cc1 (stereo not drawn) |  | inconclusive: 3.16 µM [inhibitor, single point]
67 | CC1(c2ccccc2Br)NC(=O)N(CC(=O)Nc2ccc(S(N)(=O)=O)cc2)C1=O (stereo not drawn) | inactive: 10.6% | 
68 | CC(C)(C)n1nnnc1C(c1ccc(Cl)cc1)N(Cc1cccnc1)Cc1ccco1 (stereo not drawn) |  | inconclusive: 14.1 µM [inhibitor, partial curve, poor fit]
